From the supplement of paper PMC8728848
The list shows a part of the results.

Experiments:
Assay in all cases: glycan array binding signal (z-score within array); higher = stronger binding
Settings in all cases: glycan notation: IUPAC condensed, linker removed
[1] = biological target: Man(a1-2)Man(a1-3)[Man(a1-6)]Man(a1-6)[Man(a1-2)Man(a1-3)]Man(b1-4)GlcNAc(b1-4)GlcNAc
Procedure, shortened: (§1)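 Glycan array data were curated from 3228 arrays in the Consortium for Functional Glycomics database and kept only where the protein sequence was available. Glycan names were converted to IUPAC-condensed notation, and columns mapping to the same glycan were averaged. The binding signal is a within-array Z-score, averaged across arrays of the same protein sequence at different concentrations or buffers and across linkers. Negative Z-scores can be read as non-binding.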

[2] = biological target: Man(a1-2)Man(a1-6)[Man(a1-3)]Man(a1-6)[Man(a1-2)Man(a1-2)Man(a1-3)]Man
Procedure, shortened: as §1

[3] = biological target: Man(a1-2)Man(a1-6)[Man(a1-3)]Man(a1-6)[Man(a1-2)Man(a1-2)Man(a1-3)]Man(b1-4)GlcNAc(b1-4)GlcNAc
Procedure, shortened: as §1

Man(a1-3)[Man(a1-6)]Man = biological target: Man(a1-3)[Man(a1-6)]Man
Procedure, shortened: as §1

[4] = biological target: Man(a1-3)[Man(a1-6)]Man(a1-6)[Man(a1-2)Man(a1-3)]Man(b1-4)GlcNAc(b1-4)GlcNAc
Procedure, shortened: as §1

[5] = biological target: Man(a1-3)[Man(a1-6)]Man(a1-6)[Man(a1-3)]Man
Procedure, shortened: as §1

[6] = biological target: Man(a1-3)[Man(a1-6)]Man(a1-6)[Man(a1-3)]Man(b1-4)GlcNAc(b1-4)GlcNAc
Procedure, shortened: as §1

[7] = biological target: Man(a1-3)[Man(a1-6)]Man(b1-4)GlcNAc(b1-4)GlcNAc
Procedure, shortened: as §1

Man(a1-6)Man = biological target: Man(a1-6)Man
Procedure, shortened: as §1

Man(b1-4)GlcNAc = biological target: Man(b1-4)GlcNAc
Procedure, shortened: as §1

Neu5Ac(a2-3)Gal = biological target: Neu5Ac(a2-3)Gal
Procedure, shortened: as §1

[8] = biological target: Neu5Ac(a2-3)Gal(b1-3)GalNAc
Procedure, shortened: as §1

[9] = biological target: Neu5Ac(a2-3)Gal(b1-3)GalNAc(b1-3)Gal(a1-4)Gal(b1-4)Glc
Procedure, shortened: as §1

[10] = biological target: Neu5Ac(a2-3)Gal(b1-3)GalNAc(b1-4)[Neu5Ac(a2-3)]Gal(b1-4)Glc
Procedure, shortened: as §1

[11] = biological target: Neu5Ac(a2-3)Gal(b1-3)GalNAc(b1-4)[Neu5Ac(a2-8)Neu5Ac(a2-3)]Gal(b1-4)Glc
Procedure, shortened: as §1

[12] = biological target: Neu5Ac(a2-3)Gal(b1-3)GalNAc6S
Procedure, shortened: as §1

[13] = biological target: Neu5Ac(a2-3)Gal(b1-3)GlcNAc
Procedure, shortened: as §1

[14] = biological target: Neu5Ac(a2-3)Gal(b1-3)GlcNAc(b1-3)Gal(b1-3)GlcNAc
Procedure, shortened: as §1

[15] = biological target: Neu5Ac(a2-3)Gal(b1-3)GlcNAc(b1-3)Gal(b1-4)GlcNAc
Procedure, shortened: as §1

[16] = biological target: Neu5Ac(a2-3)Gal(b1-3)GlcNAc(b1-3)GalNAc
Procedure, shortened: as §1

[17] = biological target: Neu5Ac(a2-3)Gal(b1-3)GlcNAc6S
Procedure, shortened: as §1

[18] = biological target: Neu5Ac(a2-3)Gal(b1-3)[Fuc(a1-4)]GlcNAc
Procedure, shortened: as §1

[19] = biological target: Neu5Ac(a2-3)Gal(b1-3)[Fuc(a1-4)]GlcNAc(b1-3)Gal(b1-3)[Fuc(a1-4)]GlcNAc
Procedure, shortened: as §1

[20] = biological target: Neu5Ac(a2-3)Gal(b1-3)[Fuc(a1-4)]GlcNAc(b1-3)Gal(b1-4)[Fuc(a1-3)]GlcNAc
Procedure, shortened: as §1

[21] = biological target: Neu5Ac(a2-3)Gal(b1-3)[Neu5Ac(a2-3)Gal(b1-4)]GlcNAc
Procedure, shortened: as §1

[22] = biological target: Neu5Ac(a2-3)Gal(b1-3)[Neu5Ac(a2-6)]GalNAc
Procedure, shortened: as §1

Neu5Ac(a2-3)Gal(b1-4)Glc = biological target: Neu5Ac(a2-3)Gal(b1-4)Glc
Procedure, shortened: as §1

[23] = biological target: Neu5Ac(a2-3)Gal(b1-4)GlcNAc
Procedure, shortened: as §1

[24] = biological target: Neu5Ac(a2-3)Gal(b1-4)GlcNAc(b1-2)Man(a1-3)[GlcNAc(b1-2)Man(b1-4)GlcNAc(b1-2)Man(a1-6)]Man(b1-4)GlcNAc(b1-4)GlcNAc
Procedure, shortened: as §1

[25] = biological target: Neu5Ac(a2-3)Gal(b1-4)GlcNAc(b1-2)Man(a1-3)[Neu5Ac(a2-6)Gal(b1-4)GlcNAc(b1-2)Man(a1-6)]Man(b1-4)GlcNAc(b1-4)GlcNAc
Procedure, shortened: as §1

[26] = biological target: Neu5Ac(a2-3)Gal(b1-4)GlcNAc(b1-3)Gal
Procedure, shortened: as §1

[27] = biological target: Neu5Ac(a2-3)Gal(b1-4)GlcNAc(b1-3)Gal(b1-3)GlcNAc
Procedure, shortened: as §1

[28] = biological target: Neu5Ac(a2-3)Gal(b1-4)GlcNAc(b1-3)Gal(b1-4)GlcNAc
Procedure, shortened: as §1

[29] = biological target: Neu5Ac(a2-3)Gal(b1-4)GlcNAc(b1-3)Gal(b1-4)GlcNAc(b1-3)Gal(b1-4)GlcNAc
Procedure, shortened: as §1

[30] = biological target: Neu5Ac(a2-3)Gal(b1-4)GlcNAc(b1-3)Gal(b1-4)[Fuc(a1-3)]GlcNAc
Procedure, shortened: as §1

[31] = biological target: Neu5Ac(a2-3)Gal(b1-4)GlcNAc(b1-3)GalNAc
Procedure, shortened: as §1

[32] = biological target: Neu5Ac(a2-3)Gal(b1-4)GlcNAc(b1-6)[Gal(b1-3)]GalNAc
Procedure, shortened: as §1

[33] = biological target: Neu5Ac(a2-3)Gal(b1-4)GlcNAc(b1-6)[Neu5Ac(a2-3)Gal(b1-3)]GalNAc
Procedure, shortened: as §1

[34] = biological target: Neu5Ac(a2-3)Gal(b1-4)GlcNAc6S
Procedure, shortened: as §1

[35] = biological target: Neu5Ac(a2-3)Gal(b1-4)[Fuc(a1-3)]GlcNAc
Procedure, shortened: as §1

[36] = biological target: Neu5Ac(a2-3)Gal(b1-4)[Fuc(a1-3)]GlcNAc(b1-3)Gal
Procedure, shortened: as §1

[37] = biological target: Neu5Ac(a2-3)Gal(b1-4)[Fuc(a1-3)]GlcNAc(b1-3)Gal(b1-4)GlcNAc
Procedure, shortened: as §1

[38] = biological target: Neu5Ac(a2-3)Gal(b1-4)[Fuc(a1-3)]GlcNAc(b1-3)Gal(b1-4)[Fuc(a1-3)]GlcNAc(b1-3)Gal(b1-4)[Fuc(a1-3)]GlcNAc
Procedure, shortened: as §1

[39] = biological target: Neu5Ac(a2-3)Gal(b1-4)[Fuc(a1-3)]GlcNAc(b1-3)GalNAc
Procedure, shortened: as §1

[40] = biological target: Neu5Ac(a2-3)Gal(b1-4)[Fuc(a1-3)]GlcNAc(b1-6)[Gal(b1-3)]GalNAc
Procedure, shortened: as §1

[41] = biological target: Neu5Ac(a2-3)Gal(b1-4)[Fuc(a1-3)]GlcNAc6S
Procedure, shortened: as §1

[42] = biological target: Neu5Ac(a2-3)Gal6S(b1-4)GlcNAc
Procedure, shortened: as §1

[43] = biological target: Neu5Ac(a2-3)Gal6S(b1-4)[Fuc(a1-3)]GlcNAc
Procedure, shortened: as §1

Neu5Ac(a2-3)GalNAc = biological target: Neu5Ac(a2-3)GalNAc
Procedure, shortened: as §1

[44] = biological target: Neu5Ac(a2-3)GalNAc(b1-4)GlcNAc
Procedure, shortened: as §1

B1: SefD (Salmonella enterica), Q9L6K6 (protein)
chain: GAYIIRGQNNSAHKLRIRIGGEDWQPDNSGIGMVSHSDFTNEFNIYYFGNGDIPVDTYLISIYATEIEL
For B1, the “glycan array binding signal (z-score)” value [1] was -0.507, the “glycan array binding signal (z-score)” value [2] was 1.04 and the “glycan array binding signal (z-score)” value [3] was -0.167. For the same binder, the “glycan array binding signal (z-score)” value (Man(a1-3)[Man(a1-6)]Man) was 0.39, the “glycan array binding signal (z-score)” value [4] was -0.501 and the “glycan array binding signal (z-score)” value [5] was -0.291. For the same binder, the “glycan array binding signal (z-score)” value [6] was 0.315, the “glycan array binding signal (z-score)” value [7] was -0.082 and the “glycan array binding signal (z-score)” value (Man(a1-6)Man) was 0.042. The “glycan array binding signal (z-score)” value (Man(b1-4)GlcNAc) was -0.351, the “glycan array binding signal (z-score)” value (Neu5Ac(a2-3)Gal) was 0.87 and the “glycan array binding signal (z-score)” value [8] was -0.262. For the same binder, the “glycan array binding signal (z-score)” value [9] was -0.295, the “glycan array binding signal (z-score)” value [10] was -0.395 and the “glycan array binding signal (z-score)” value [11] was 0.003. The “glycan array binding signal (z-score)” value [12] was -0.342, the “glycan array binding signal (z-score)” value [13] was -0.336 and the “glycan array binding signal (z-score)” value [14] was -0.361. For the same binder, the “glycan array binding signal (z-score)” value [15] was -0.581, the “glycan array binding signal (z-score)” value [16] was -0.39 and the “glycan array binding signal (z-score)” value [17] was -0.237. The “glycan array binding signal (z-score)” value [18] was 0.924, the “glycan array binding signal (z-score)” value [19] was -0.129 and the “glycan array binding signal (z-score)” value [20] was -0.289. For the same binder, the “glycan array binding signal (z-score)” value [21] was -0.334, the “glycan array binding signal (z-score)” value [22] was 2.7 and the “glycan array binding signal (z-score)” value (Neu5Ac(a2-3)Gal(b1-4)Glc) was -0.059. For the same binder, the “glycan array binding signal (z-score)” value [23] was 0.204, the “glycan array binding signal (z-score)” value [24] was -0.276 and the “glycan array binding signal (z-score)” value [25] was -0.507. For the same binder, the “glycan array binding signal (z-score)” value [26] was 0.532, the “glycan array binding signal (z-score)” value [27] was -0.041 and the “glycan array binding signal (z-score)” value [28] was -0.178. For the same binder, the “glycan array binding signal (z-score)” value [29] was -0.479, the “glycan array binding signal (z-score)” value [30] was -0.166 and the “glycan array binding signal (z-score)” value [31] was -0.477. The “glycan array binding signal (z-score)” value [32] was 3.13, the “glycan array binding signal (z-score)” value [33] was -0.266 and the “glycan array binding signal (z-score)” value [34] was -0.38. The “glycan array binding signal (z-score)” value [35] was -0.344, the “glycan array binding signal (z-score)” value [36] was -0.059 and the “glycan array binding signal (z-score)” value [37] was 0.045. For the same binder, the “glycan array binding signal (z-score)” value [38] was -0.503, the “glycan array binding signal (z-score)” value [39] was 11.3 and the “glycan array binding signal (z-score)” value [40] was -0.092. The “glycan array binding signal (z-score)” value [41] was -0.448, the “glycan array binding signal (z-score)” value [42] was -0.274 and the “glycan array binding signal (z-score)” value [43] was -0.367. For the same binder, the “glycan array binding signal (z-score)” value (Neu5Ac(a2-3)GalNAc) was -0.179 and the “glycan array binding signal (z-score)” value [44] was -0.264.
